The full ranking holds about 33,000 sequences; the median of “E-score (-0.5 to 0.5)” is about -0.054, and the highest 2% start at about 0.39. This is one part of the list.
Each sequence was assayed against Ylr278c (UniProt Q05854) (assay: PBM E-score (8-mer binding enrichment) (E-score (-0.5 to 0.5)); higher = stronger / more preferred TF binding; most listed sequences are background and not binding sites). Conditions: protein concentration: 200 nM; construct: GST-DNA-binding domain.
Method in brief: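 E-scores (a modified Wilcoxon-Mann-Whitney statistic) were assigned by the Universal PBM Analysis Suite to every ungapped eight-base word pooled with its reverse complement. The input came from universal all-10-mer Agilent arrays made double-stranded by primer extension and probed with GST-tagged yeast transcription factors at about 100-200 nM. Fluorescent anti-GST detected bound protein, and masliner normalised the scans.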

Sequence | PBM E-score
CACCGCCA | 0.0608
GCGTCGCC | 0.115
CAATTGCC | 0.00964
ATGCCCAC | -0.117
CGGTTCTA | 0.15
CTCCAACC | 0.0151
AAATTTAC | 0.0141
GAAAAACC | 0.25
CTCGGTGC | 0.0178
CGCACTGC | 0.107
ACGCAGGG | -0.0896
AAGCGGGG | 0.112
CGTTTAAG | -0.0941
AGCTCAGC | -0.282
AACCATCG | 0.0694
CACAGCTG | -0.106
CTCACGGC | 0.138
ATTGTACC | -0.105
GGTACCGA | 0.135
TACGCCGA | 0.293
AAATAGGG | -0.0513
GGCACTTA | -0.239
CAGTTAGG | -0.137
AGTCTTAG | -0.244
ACCTTGAG | -0.131

Sequence | PBM E-score
GGGTAAAC | 0.0949
GAACAGTA | -0.0875
ACCAGGGT | -0.206
CAGAATGG | -0.0518
CCGGCCCC | 0.307
GTTATACA | -0.117
AACTGTAC | -0.195
GTGAATCA | -0.104
AAATGTGT | -0.0971
AGACGTCT | -0.209
AGCGAATA | -0.0504
CTGATGTA | -0.102
TCAATGCA | -0.28
CGACAGGC | -0.168
ACGGGTAG | -0.155
ACCTCCAG | -0.111
AAAAGCGT | -0.0372
AAGCTATC | -0.06
ATGTACGA | -0.0123
CAGGAACG | -0.153
GTAATTCA | -0.0661
GCCATGAC | -0.144
CTGAGAGA | -0.298
ATCAGTGC | -0.235
GTAACCGA | 0.0372

Sequence | PBM E-score
ATGAAGTG | -0.0885
CCACAGCA | -0.109
ACCGCAAT | 0.16
CATCTTGC | -0.0382
AACACGCG | -0.142
AGCGTAAA | -0.00156
CAAAAATC | -0.1
ATGCTAAA | -0.173
GGTGCGTA | -0.0366
AAAATTTG | -0.22
GGAGCACA | 0.123
AGCGCTCC | 0.0243
ATGGTGTA | -0.255
GCGGATCA | 0.212
TCTCACCA | 0.0252
CATATGCC | 0.0552
ATTTGCCA | -0.237
AGATAACT | -0.0472
CGATGGGA | 0.173
CCAGGGAA | -0.274
GTGTCACA | 0.0634
ACGTTACC | -0.066
TGGGTTAA | -0.21
ACACCTGG | -0.243
GAAGGTCC | 0.198

Sequence | PBM E-score
GGTCAATA | -0.137
ATGGTTCG | 0.0265
GCAGCAGC | -0.198
ACGTACAG | -0.125
ACGACGCG | 0.0212
CACTGTGG | -0.303
GCACATCA | -0.0109
TAGACTAA | -0.227
AGGAGATG | -0.0733
CGTTGATA | 0.121
GGGCCAAA | -0.00886
GTTCCAGA | -0.266
ATTCAATC | 0.0442
GAGTTGGC | 0.046
CCGGAAGA | 0.421
AGTAAGGC | 0.0309
AAACCATC | 0.18
AACCGACG | 0.198
CCCCAATA | -0.116
AGTTCTAA | -0.0282
ACCACGCA | -0.29
CATACGCC | -0.0581
AGTGACTC | -0.202
CTAGTGTC | -0.0814
AGGACGTG | -0.147

Sequence | PBM E-score
GTTCTCGA | -0.251
AATTAATT | -0.056
GTTCGATA | 0.032
TAAGTCGA | -0.243
ATCCGGGC | 0.406
AATCCCCG | 0.398
AGGCCCCC | -0.0135
CTGGATAA | 0.00624
GCTTTTTA | -0.0143
ACTTATGA | -0.124
ACGTGAGA | -0.147
AAAGGTCC | 0.00747
AGAGAGTG | -0.224
ACCTTGGA | -0.0698
CTCGCGCC | 0.149
AGCGACTA | -0.27
CAAGGCTA | 0.0372
ACATCCTA | -0.281
ACTCTTTA | -0.29
AATGCGTA | -0.0855
GTGCGTGA | 0.0427
AAAAGACC | -0.0155
CATGCAAC | -0.00565
CCAGCGAC | -0.26
CTAATAAC | -0.0371

Sequence | PBM E-score
AGTATAGG | 0.00653
CTTGCATC | -0.0743
ATGCCGCC | 0.325
CTTGCGAA | 0.166
ACTGCGTC | -0.239
ATCGTCGG | 0.248
ACTCGTTC | -0.17
ACGGAAAT | 0.378
GAACGCAA | -0.0321
AGGTTAGG | -0.0362
AACAAAAA | -0.0965
ACCCAGGT | -0.143
TAGCACCA | -0.146
GCGAGTCA | -0.0556
CGCAACTC | 0.168
AAGGGCCC | -0.0976
ATCACGCG | 0.17
AAAAGGTG | -0.196
ATACTAGG | 0.0458
CACAAGCA | -0.275
GGGCAACA | 0.0452
GATGATAA | -0.0127
ATTCAAGG | -0.282
AACTGAGA | -0.257
CCCAATCG | 0.00259

Sequence | PBM E-score
ACCAGCGT | -0.299
AGCGTACA | -0.326
ATCATGGG | -0.258
CCCCCGAG | 0.076
AGGCCCGG | 0.22
AGAAGTTA | -0.278
CTCAAATA | -0.122
GGTAAGAC | -0.122
ACAAGGCC | -0.0782
AGCTGGAT | -0.0941
CTTATACA | -0.0911
CTGATTTA | 0.0293
ACCAATCC | 0.0813
AAACTGGT | -0.105
CCTTGAAC | -0.189
GACACTGA | -0.0883
GAGTGTAC | -0.00985
GTAGCACA | -0.137
AGAGACAT | -0.0847
AGTGACGA | -0.136
CACGTCCG | 0.244
AGAGTTTA | 0.049

From the supplement of paper PMC3334620
